Measured values from the supplement of paper PMC4967469.
Lines with a small IC50 respond at low doses; fits outside the tested doses are given as limits. For AUC the same curve is integrated over the 256-fold range of doses and scaled to a fraction; values near 1 show little effect.

Compound: COc1ccc(C2=N[C@@H](c3ccc(Cl)cc3)[C@@H](c3ccc(Cl)cc3)N2C(=O)N2CCNC(=O)C2)c(OC(C)C)c1 [Nutlin-3a]
Test: Viability of human cancer cell lines after 72 h of drug (GDSC screen)
Description: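 Human cancer cell lines in 384-well plates, medium with 10% serum, drug for 72 h over a 256-fold dose range (nine 2-fold or five 4-fold steps up to the top dose). Adherent lines were fixed and stained with the nucleic acid dye Syto60, suspension lines read with resazurin; signal relative to control wells, capped at 0 and 100%. One two-parameter sigmoid per drug and line, fitted in a mixed model over all curves with the slope shared within a line.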

Cell Line	AUC	IC50
OS-RC-2 (kidney, adherent, top dose 8 µM)	0.792	5.63 µM
OSC-19 (head and neck, adherent, top dose 8 µM)	0.956	> 8 µM
OSC-20 (head and neck, adherent, top dose 4 µM)	0.973	> 4 µM
OV-7 (ovary, adherent, top dose 8 µM)	0.927	> 8 µM
OV-17R (ovary, adherent, top dose 8 µM)	0.964	> 8 µM
OV-56 (ovary, adherent, top dose 8 µM)	0.985	> 8 µM
OV-90 (ovary, adherent, top dose 8 µM)	0.961	> 8 µM
OVCA420 (ovary, adherent, top dose 8 µM)	0.982	> 8 µM
OVCA433 (ovary, adherent, top dose 8 µM)	0.83	5.83 µM
OVCAR-3 (ovary, adherent, top dose 8 µM)	0.929	> 8 µM
OVCAR-4 (ovary, adherent, top dose 8 µM)	0.956	> 8 µM
OVCAR-5 (ovary, adherent, top dose 8 µM)	0.977	> 8 µM
OVCAR-8 (ovary, adherent, top dose 8 µM)	0.988	> 8 µM
OVISE (ovary, adherent, top dose 8 µM)	0.756	3.59 µM
OVK-18 (ovary, adherent, top dose 8 µM)	0.777	3.56 µM
OVKATE (ovary, adherent, top dose 8 µM)	0.976	> 8 µM
OVMIU (ovary, adherent, top dose 8 µM)	0.856	> 8 µM
OVTOKO (ovary, adherent, top dose 8 µM)	0.753	3.35 µM

Cell Line	AUC	IC50
P12-ICHIKAWA (T-cell lymphoblastic leukaemia, suspension, top dose 8 µM)	0.994	> 8 µM
P30-OHK (lymphoblastic leukaemia, suspension, top dose 8 µM)	0.877	5.77 µM
P31-FUJ (acute myeloid leukaemia, suspension, top dose 8 µM)	0.996	> 8 µM
P32-ISH (Burkitt lymphoma, suspension, top dose 8 µM)	0.995	> 8 µM
PA-1 (ovary, adherent, top dose 8 µM)	0.756	2.22 µM
PA-TU-8902 (pancreas, adherent, top dose 8 µM)	0.981	> 8 µM
PANC-02-03 (pancreas, adherent, top dose 8 µM)	0.98	> 8 µM
PANC-03-27 (pancreas, adherent, top dose 8 µM)	0.985	> 8 µM
PANC-04-03 (pancreas, adherent, top dose 8 µM)	0.958	> 8 µM
PANC-10-05 (pancreas, adherent, top dose 4 µM)	0.981	> 4 µM
PC-3 (prostate, adherent, top dose 4 µM)	0.971	> 4 µM
PC-3 [JPC-3] (lung adenocarcinoma, adherent, top dose 8 µM)	0.977	> 8 µM
PC-14 (lung adenocarcinoma, adherent, top dose 8 µM)	0.988	> 8 µM
PCI-4B (head and neck, adherent, top dose 8 µM)	0.964	> 8 µM
PCI-6A (head and neck, adherent, top dose 8 µM)	0.955	> 8 µM
PCI-15A (head and neck, adherent, top dose 8 µM)	0.988	> 8 µM
PCI-30 (head and neck, adherent, top dose 8 µM)	0.95	> 8 µM
